Experimental data taken from the GPR68 mutational scans of Howard et al. (2025).

B1: GPR68, Q15743 (parent)
chain: MGNITADNSSMSCTIDHTIHQTLAPVVYVTVLVVGFPANCLSLYFGYLQIKARNELGVYLCNLTVADLFYICSLPFWLQYVLQHDNWSHGDLSCQVCGILLYENIYISVGFLCCISVDRYLAVAHPFRFHQFRTLKAAVGVSVVIWAKELLTSIYFLMHEEVIEDENQHRVCFEHYPIQAWQRAINYYRFLVGFLFPICLLLASYQGILRAVRRSHGTQKSRKDQIQRLVLSTVVIFLACFLPYHVLLLVRSVWEASCDFAKGVFNAYHFSLLLTSFNCVADPVLYCFVSETTHRDLARLRGACLAFLTCSRTGRAREAYPLGAPEASGKSGAQGEEPELLTKLHPAFQTPNSPGSGGFPTGRLA

Experiments:
[1] = variants of: B1; test: cAMP reporter score (Enrich2 score, wild type = 0); higher = more signal; HEK293T, FACS bins
[2] = variants of: B1; test: surface expression score (Enrich2 score, wild type = 0); higher = more signal; HEK293T, FACS bins

## F127G
[1]; pH 5.5
  cAMP reporter score: -1.66
[1]; pH 6.5, modulator: ogerin
  cAMP reporter score: -1.29
[2]
  surface expression score: 1.82

## F127H
[1]; pH 5.5
  cAMP reporter score: -0.581
[1]; pH 6, modulator: ogerin
  cAMP reporter score: -1.14
[1]; pH 6.5, modulator: ogerin
  cAMP reporter score: -1.76
[2]
  surface expression score: 1.61

## G140V
[1]; pH 5.5
  cAMP reporter score: -0.48
[1]; pH 6
  cAMP reporter score: -0.52
[1]; pH 6, modulator: ogerin
  cAMP reporter score: -0.757
[1]; pH 6.5, modulator: ogerin
  cAMP reporter score: -0.131
[2]
  surface expression score: -0.175

## G140Q
[1]; pH 5.5
  cAMP reporter score: -0.581
[1]; pH 6
  cAMP reporter score: -1.47
[1]; pH 6, modulator: ogerin
  cAMP reporter score: 0.138
[1]; pH 6.5, modulator: ogerin
  cAMP reporter score: -0.501
[2]
  surface expression score: -1.23

## G140E
[1]; pH 5.5
  cAMP reporter score: -0.717
[1]; pH 6
  cAMP reporter score: -1.08
[1]; pH 6, modulator: ogerin
  cAMP reporter score: -1.61
[1]; pH 6.5, modulator: ogerin
  cAMP reporter score: -1.01
[2]
  surface expression score: -1.81

## G140A
[1]; pH 5.5
  cAMP reporter score: 1.03
[1]; pH 6
  cAMP reporter score: 0.494
[1]; pH 6, modulator: ogerin
  cAMP reporter score: 1.35
[1]; pH 6.5, modulator: ogerin
  cAMP reporter score: 1.43
[2]
  surface expression score: 1.07

## G140R
[1]; pH 5.5
  cAMP reporter score: -1.43
[1]; pH 6
  cAMP reporter score: -1.09
[1]; pH 6, modulator: ogerin
  cAMP reporter score: -1.43
[1]; pH 6.5, modulator: ogerin
  cAMP reporter score: -1.37
[2]
  surface expression score: -2.61

## G140L
[1]; pH 5.5
  cAMP reporter score: 0.569
[1]; pH 6
  cAMP reporter score: 1.02
[1]; pH 6, modulator: ogerin
  cAMP reporter score: 0.135
[1]; pH 6.5, modulator: ogerin
  cAMP reporter score: 0.283
[2]
  surface expression score: 0.639

## G140T
[1]; pH 5.5
  cAMP reporter score: 0.597
[1]; pH 6
  cAMP reporter score: 0.562
[1]; pH 6, modulator: ogerin
  cAMP reporter score: 0.69
[1]; pH 6.5, modulator: ogerin
  cAMP reporter score: 0.137
[2]
  surface expression score: 0.757

## G140S
[1]; pH 5.5
  cAMP reporter score: 0.526
[1]; pH 6
  cAMP reporter score: 1.36
[1]; pH 6, modulator: ogerin
  cAMP reporter score: 0.454
[1]; pH 6.5, modulator: ogerin
  cAMP reporter score: 2.49
[2]
  surface expression score: 1.29

## G140F
[1]; pH 5.5
  cAMP reporter score: 0.971
[1]; pH 6, modulator: ogerin
  cAMP reporter score: 0.507
[1]; pH 6.5, modulator: ogerin
  cAMP reporter score: 1.6
[2]
  surface expression score: 0.175

## G140D
[1]; pH 5.5
  cAMP reporter score: -0.856
[1]; pH 6, modulator: ogerin
  cAMP reporter score: -1.45
[1]; pH 6.5, modulator: ogerin
  cAMP reporter score: -0.573
[2]
  surface expression score: -2.04

## G140N
[1]; pH 5.5
  cAMP reporter score: 0.202
[1]; pH 6, modulator: ogerin
  cAMP reporter score: -0.326
[1]; pH 6.5, modulator: ogerin
  cAMP reporter score: -0.022
[2]
  surface expression score: -2.19

## G140W
[1]; pH 5.5
  cAMP reporter score: 0.534
[1]; pH 6
  cAMP reporter score: 0.643
[1]; pH 6, modulator: ogerin
  cAMP reporter score: 1.02
[1]; pH 6.5, modulator: ogerin
  cAMP reporter score: 0.837
[2]
  surface expression score: 0.941

## G140Y
[1]; pH 5.5
  cAMP reporter score: -0.295
[1]; pH 6
  cAMP reporter score: -0.069
[1]; pH 6, modulator: ogerin
  cAMP reporter score: -0.169
[1]; pH 6.5, modulator: ogerin
  cAMP reporter score: -0.163
[2]
  surface expression score: -0.168

## G140C
[1]; pH 5.5
  cAMP reporter score: 0.651
[1]; pH 6
  cAMP reporter score: -0.2
[1]; pH 6, modulator: ogerin
  cAMP reporter score: 1.27
[1]; pH 6.5, modulator: ogerin
  cAMP reporter score: 1.13
[2]
  surface expression score: 0.558

## G140I
[1]; pH 5.5
  cAMP reporter score: 0.71
[1]; pH 6
  cAMP reporter score: 0.265
[1]; pH 6, modulator: ogerin
  cAMP reporter score: 0.142
[1]; pH 6.5, modulator: ogerin
  cAMP reporter score: 1.59
[2]
  surface expression score: 1.24

## G140H
[1]; pH 5.5
  cAMP reporter score: -0.935
[1]; pH 6
  cAMP reporter score: -0.938
[1]; pH 6, modulator: ogerin
  cAMP reporter score: -0.016
[2]
  surface expression score: -0.554

## G140P
[1]; pH 5.5
  cAMP reporter score: -1.1
[1]; pH 6
  cAMP reporter score: -1.62
[1]; pH 6, modulator: ogerin
  cAMP reporter score: -1.2
[1]; pH 6.5, modulator: ogerin
  cAMP reporter score: -1.94
[2]
  surface expression score: -1.87

## G140M
[1]; pH 5.5
  cAMP reporter score: -0.12
[1]; pH 6
  cAMP reporter score: -0.158
[1]; pH 6, modulator: ogerin
  cAMP reporter score: 0.078
[1]; pH 6.5, modulator: ogerin
  cAMP reporter score: 1.1
[2]
  surface expression score: 0.061

## R128_H130del
[1]; pH 5.5
  cAMP reporter score: -0.777
[1]; pH 6
  cAMP reporter score: -1.35
[1]; pH 6, modulator: ogerin
  cAMP reporter score: -1.36
[1]; pH 6.5, modulator: ogerin
  cAMP reporter score: -1.3
[2]
  surface expression score: -2.75

## K136_A137insGSG
[1]; pH 5.5
  cAMP reporter score: -2.05
[1]; pH 6
  cAMP reporter score: 0.824
[1]; pH 6, modulator: ogerin
  cAMP reporter score: -2.4
[1]; pH 6.5, modulator: ogerin
  cAMP reporter score: -0.652

## R128del
[1]; pH 5.5
  cAMP reporter score: -1.69
[1]; pH 6
  cAMP reporter score: -0.719
[1]; pH 6, modulator: ogerin
  cAMP reporter score: -0.881
[1]; pH 6.5, modulator: ogerin
  cAMP reporter score: -0.685
[2]
  surface expression score: -2.17

## Q131_F132insG
[1]; pH 5.5
  cAMP reporter score: -1.9
[1]; pH 6
  cAMP reporter score: -1.22
[1]; pH 6, modulator: ogerin
  cAMP reporter score: -1.38
[1]; pH 6.5, modulator: ogerin
  cAMP reporter score: -1.1
[2]
  surface expression score: -2.22

## V143L
[1]; pH 5.5
  cAMP reporter score: 0.148
[1]; pH 6
  cAMP reporter score: -0.253
[1]; pH 6, modulator: ogerin
  cAMP reporter score: -0.4
[1]; pH 6.5, modulator: ogerin
  cAMP reporter score: -0.531
[2]
  surface expression score: -0.308

## V143C
[1]; pH 5.5
  cAMP reporter score: 1.09
[1]; pH 6, modulator: ogerin
  cAMP reporter score: 0.848
[1]; pH 6.5, modulator: ogerin
  cAMP reporter score: 2.93
[2]
  surface expression score: 2.09

## V143D
[1]; pH 5.5
  cAMP reporter score: -0.395
[1]; pH 6
  cAMP reporter score: -0.824
[1]; pH 6.5, modulator: ogerin
  cAMP reporter score: -0.433

## V143H
[1]; pH 5.5
  cAMP reporter score: -1.14
[1]; pH 6
  cAMP reporter score: -1.19
[1]; pH 6, modulator: ogerin
  cAMP reporter score: -1.18
[1]; pH 6.5, modulator: ogerin
  cAMP reporter score: -1.24
[2]
  surface expression score: -3.33

## V143Q
[1]; pH 5.5
  cAMP reporter score: -1.36
[1]; pH 6
  cAMP reporter score: -1.01
[1]; pH 6, modulator: ogerin
  cAMP reporter score: -1.76
[1]; pH 6.5, modulator: ogerin
  cAMP reporter score: -1.34

## V143K
[1]; pH 5.5
  cAMP reporter score: -1.17
[1]; pH 6
  cAMP reporter score: -0.379
[1]; pH 6, modulator: ogerin
  cAMP reporter score: -1.27
[1]; pH 6.5, modulator: ogerin
  cAMP reporter score: -1.57
[2]
  surface expression score: -3.13

## V143R
[1]; pH 5.5
  cAMP reporter score: -0.493
[1]; pH 6
  cAMP reporter score: -0.261
[1]; pH 6, modulator: ogerin
  cAMP reporter score: -1.49
[1]; pH 6.5, modulator: ogerin
  cAMP reporter score: -0.921
[2]
  surface expression score: -3.19

## V143A
[1]; pH 5.5
  cAMP reporter score: -0.393
[1]; pH 6
  cAMP reporter score: 0.459
[1]; pH 6, modulator: ogerin
  cAMP reporter score: 0.558

Scores with a large standard error are left out. Two further conditions of the source, in which the scores hardly spread, are not listed. In variant names, del marks residues removed and ins residues inserted between the two positions. For some assays here: The concentration of ogerin is not given here.
